Experimental data: publication PMC4336329 (PLoS ONE, 2015)
Among all 310,000 compounds or so, about 14,000 (4.5%) showed an effect of 50% or more. The effect is printed as a negative number. The list shows a part of the results.

The compounds below were run against human ether-à-go-go-related gene (hERG) potassium channel (human, UniProt Q12809) (assay: primary screen, population patch clamp on CHO cells stably expressing hERG).
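Further: peak tail current of the secondary pulse compared with the same well before compound.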

Chain of human ether-à-go-go-related gene (hERG) potassium channel (Q12809 whole entry, looked up): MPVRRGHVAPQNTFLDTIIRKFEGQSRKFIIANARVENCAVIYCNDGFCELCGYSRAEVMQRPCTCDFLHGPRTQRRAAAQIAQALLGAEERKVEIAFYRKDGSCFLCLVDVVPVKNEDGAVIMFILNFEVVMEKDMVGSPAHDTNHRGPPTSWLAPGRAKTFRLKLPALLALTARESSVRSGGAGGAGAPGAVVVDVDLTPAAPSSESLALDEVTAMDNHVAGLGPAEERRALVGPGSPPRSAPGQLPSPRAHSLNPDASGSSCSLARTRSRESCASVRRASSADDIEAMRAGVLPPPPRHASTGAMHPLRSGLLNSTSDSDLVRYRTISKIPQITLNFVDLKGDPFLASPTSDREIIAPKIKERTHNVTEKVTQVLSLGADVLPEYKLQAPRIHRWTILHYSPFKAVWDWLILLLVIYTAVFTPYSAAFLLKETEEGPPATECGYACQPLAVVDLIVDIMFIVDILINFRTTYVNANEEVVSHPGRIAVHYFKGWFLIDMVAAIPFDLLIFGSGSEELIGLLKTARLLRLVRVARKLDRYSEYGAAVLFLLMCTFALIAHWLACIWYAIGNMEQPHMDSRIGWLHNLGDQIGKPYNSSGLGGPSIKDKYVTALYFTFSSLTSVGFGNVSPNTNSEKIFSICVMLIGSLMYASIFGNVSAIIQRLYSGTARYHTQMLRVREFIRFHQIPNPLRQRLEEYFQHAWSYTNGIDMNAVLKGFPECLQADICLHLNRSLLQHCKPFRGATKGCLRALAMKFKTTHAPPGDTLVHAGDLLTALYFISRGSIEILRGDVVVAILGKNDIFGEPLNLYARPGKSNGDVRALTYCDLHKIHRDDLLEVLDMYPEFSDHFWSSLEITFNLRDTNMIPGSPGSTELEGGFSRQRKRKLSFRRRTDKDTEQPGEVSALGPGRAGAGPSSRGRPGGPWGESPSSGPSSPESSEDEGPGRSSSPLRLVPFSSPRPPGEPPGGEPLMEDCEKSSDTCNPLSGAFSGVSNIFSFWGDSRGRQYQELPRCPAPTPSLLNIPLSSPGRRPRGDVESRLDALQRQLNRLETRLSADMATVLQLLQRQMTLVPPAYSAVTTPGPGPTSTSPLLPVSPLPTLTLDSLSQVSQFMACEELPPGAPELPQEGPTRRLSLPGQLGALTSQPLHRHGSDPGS

| SMILES | hERG current change (%, negative = inhibition) at 10uM [%] |
| --- | --- |
| CSCCC(NS(=O)(=O)c1ccc(Cl)cc1)C(=O)O (stereo not drawn) | 15.3 |
| COc1ccc2oc(C(=O)OCC(=O)NCCN3C(=O)CSC3=O)c(C)c2c1 | -17.1 |
| Cc1ccc2c(c1)N(CC(=O)NC1CCCC1)C(=O)c1cccnc1O2 | 1.81 |
| Cc1ccc(CCNC(=O)CN2C(=O)COc3ccc(S(=O)(=O)N4CCOCC4)cc32)cc1 | 5.43 |
| CCn1c2ccccc2c2cc(NC(=O)COC(=O)c3ccccc3Br)ccc21 | 14 |
| CC[C@H](C)[C@H](NC(=O)c1ccccc1)C(=O)NC(CC(=O)O)c1ccc(F)cc1 (stereo partly drawn) | 29.8 |
| Cc1noc(C)c1C(=O)NCc1ccccc1Br | 13.4 |
| CCOC(=O)c1c(C)[nH]c(C(=O)OC)c1CCC(=O)OC | 8.36 |
| O=C(NCCCn1ccnc1)c1ccc(Br)o1 | 3.98 |
| N#C/C(=C\c1ccco1)C(=O)NCc1ccccc1 | 4.87 |
| O=C(Nc1ccc(S(=O)(=O)N2CCCCC2)cc1)C1CCCCC1 | -4.39 |
| O=C(O)c1cc(S(=O)(=O)NCC2CCCO2)ccc1Cl (stereo not drawn) | -1.74 |
| Cn1nnnc1SCC(=O)c1ccco1 | 8.25 |
| Cc1nn(CC(=O)Nc2ccc(Br)cc2F)c(=O)c2cccn12 | -13.4 |
| Cc1ccc(-n2c(COc3c(C)cccc3C)nnc2SCC(=O)Nc2nccs2)cc1 | -7.46 |
| CCN1C(=O)N[C@@H](c2ccccc2)C(C(=O)OC)=C1C | -1.67 |
| Cc1ccc(/C=N/NC(=O)CSc2nc3nc(C)cc(C)n3n2)cc1 | -19.3 |
| Nc1c2c(nc3ccccc13)CCC2.O=C(O)/C=C/C(=O)O | -18.2 |
| FC(F)Sc1nc(-c2ccccc2)c(-c2ccccc2)n1C(F)F | -0.303 |
| Cc1ccc(C)c(NC(=O)CCCCCN2C(=O)[C@@H]3Cc4ccccc4CN3C2=O)c1 | -16.8 |
| O=C(O)c1cc(NC(=O)c2cccc(N3C(=O)c4ccccc4C3=O)c2)cc(C(=O)O)c1 | -2.06 |
| CC(C)C(NC(=O)C(c1ccccc1)c1ccccc1)c1nc2ccccc2[nH]1 (stereo not drawn) | 14.5 |
| Cc1nc(=O)c(-c2ccccc2)c(C)n1-c1ccccc1Cl | -4.38 |

| SMILES | hERG current change (%, negative = inhibition) at 10uM [%] |
| --- | --- |
| COC(=O)Cn1c(C)c(/C=C/c2cc[n+](C)cc2)c2ccccc21.[I-] | 9.71 |
| O=C1c2ccccc2C(=O)N1c1ncccn1 | 10.7 |
| COc1ccc(S(=O)(=O)N2CCN(C(=O)c3sccc3-c3ccccc3)CC2)cc1 | -29.5 |
| O=C(NC1CCCc2ccccc21)C1CCN(c2c3c(nc4ncnn24)CCC3)CC1 (stereo not drawn) | -31.3 |
| C=CCn1c(SCc2nc3scc(-c4ccccc4)c3c(=O)[nH]2)nnc1-c1ccccc1F | -26.3 |
| COc1ccc2[nH]c(=O)c(CN(C(=O)c3cccnc3)c3cccc(C)c3)cc2c1 | 11.5 |
| CCn1nc(C)c(CNC(=O)c2cc(COc3cncc(Cl)c3)on2)c1C | -2.83 |
| O=C1C(=O)N(CCCn2ccnc2)C(c2cccc(Br)c2)/C1=C(\O)c1ccc2c(c1)OCCO2 (stereo not drawn) | -0.29 |
| Cn1c(=O)cc(OCCCC(=O)NCc2ccco2)c2ccccc21 | -2.62 |
| Cc1noc(C)c1COC(=O)c1ccc(F)c(S(=O)(=O)N2CCOCC2)c1 | -8.52 |
| CCCCOCCCNC(=O)c1ccc([N+](=O)[O-])c(C)c1 | -31.2 |
| CCc1c(C)nc2cc(-c3ccc(OC)c(OC)c3)nn2c1NCC1CC1 | -22.7 |
| CC1CCCN(c2ccc(C(=O)NCc3cccs3)cn2)C1 (stereo not drawn) | -12.8 |
| CC1CCC(N(CCCN)Cc2ccco2)CC1C (stereo not drawn) | -5.49 |
| Cc1ccc2nc(-c3ccccc3)cc(C(=O)NCC(c3ccco3)N(C)C)c2c1 (stereo not drawn) | -28.6 |
| O=C(CSc1n[nH]c(-c2ccccn2)n1)Nc1ccccc1 | -6.86 |
| Cc1ccc(CCC(=O)Nc2ccccc2F)s1 | 4.06 |
| CCOc1ccccc1NC(=O)c1ccccc1N(C)S(C)(=O)=O | 13.9 |
| CCOc1ccc(CNCCc2ccc(S(N)(=O)=O)cc2)cc1.Cl | -70.1 |
| CC1CN(c2nc3ccccc3nc2SCC(=O)Nc2ccc(F)cc2)CC(C)O1 (stereo not drawn) | 3.8 |
| NC(=O)c1ccccc1NS(=O)(=O)c1cccs1 | 14.4 |
| COc1ccc(CN=CC2=C(O)CC(C)(C)CC2=O)cc1 | 0.178 |
| CC(=O)C1=C(C)OC(N)=C(C(=O)OC(C)C)C12C(=O)Nc1ccccc12 (stereo not drawn) | -1.44 |

| SMILES | hERG current change (%, negative = inhibition) at 10uM [%] |
| --- | --- |
| O=C(NCc1ccccn1)c1ccc(N2CCCC2=O)cc1 | 10.6 |
| Cc1cccc(CNCCc2c[nH]c3ccccc23)c1.O=C(O)C(=O)O | -30.6 |
| Cc1ccccc1-n1c(Cn2c(=O)sc3ccccc32)nnc1SCC(=O)Nc1nccs1 | 5.61 |
| COc1ccc(-c2csc(N(CCCN3CCOCC3)C(=O)c3ccco3)n2)cc1.Cl | -32.4 |
| O=C(Cn1cnc2c(oc3ccccc32)c1=O)c1ccccc1 | 2.38 |
| CCOC(=O)N1CCN(C(=O)Cn2nc(C)c3sc4ccccc4c3c2=O)CC1 | -6.08 |
| CN1CCC(N(C)C(=O)COc2ccccc2Cl)CC1 | -1 |
| COCc1cc(=O)n2[nH]c(-c3ccc(C)cc3)cc2n1 | -28.3 |
| CN1C[C@H](CO)C[C@@H]2c3cccc4[nH]cc(c34)C[C@H]21 | -7.36 |
| Cc1cc(C)cc(N(CC(=O)NC2CCCCCC2)S(=O)(=O)c2c(C)[nH]c(=O)[nH]c2=O)c1 | 13.8 |
| CCOC(=O)C=C1CCN(c2ncc(C(F)(F)F)cc2Cl)CC1 | 5.46 |
| Nc1cc(=O)[nH]c(SCC(=O)Nc2cc(S(=O)(=O)N3CCOCC3)ccc2Cl)n1 | 1.69 |
| Cc1nc(-c2ccccc2)sc1C(=O)CSc1ccc(F)cc1 | -7.92 |
| COc1ccc(OC)c(NC(=O)c2ccc(OC3CSC3)cc2)c1 | -27 |
| Cc1cc(C)n2c(SCC(=O)Nc3cc(C)on3)nnc2n1 | -4.82 |
| COC(=O)c1cc(Br)c(N)cc1OC | 14.3 |
| CCn1nc(C)c(/C=N/NC(=O)Cn2nnc(N)n2)c1C | -18.3 |
| CCOc1ccc(NS(=O)(=O)c2cccc(C(=O)N(C)Cc3ccco3)c2)cc1 | -30.1 |
| Cc1nc(Sc2cccn2C)c(C(F)(F)F)c(=O)[nH]1 | -13.4 |
| O=C1C=C(NC(=O)Nc2ccc(Cl)c(Cl)c2)CCC1 | 10.5 |
| Cc1cc(F)c(F)c(C(=O)NC2CC2)c1Cl | -0.586 |
| Cc1ccc(C(=O)Nc2cc(=O)n(C)c(=O)n2C)o1 | 22.3 |
| COc1ccc(-n2c(-c3ccc(Cl)cc3)c[n+]3c2CCc2ccccc2-3)cc1.[Br-] | -78.4 |

| SMILES | hERG current change (%, negative = inhibition) at 10uM [%] |
| --- | --- |
| CN1C(=O)S/C(=C/c2cccn2-c2cccc(C(=O)O)c2)C1=O | 14.5 |
| CCCCn1c(SCC(=O)c2cc(OC)ccc2OC)nc2cc(S(N)(=O)=O)ccc21 | 2.15 |
| COc1ccc(CC(=O)c2cc(OC)c(OC)cc2CC(=O)O)cc1OC | 7.51 |
| C[C@@H]1[C@H](O)C[C@@]23COC(=O)C2=CCC[C@@H]3[C@@]1(C)CC/C(=C/CO)CO | 14.8 |
| Cc1nn(CC(=O)NCCc2ccc(Cl)cc2)c(=O)c2cccn12 | -6.32 |
| COc1ccccc1-c1c(NC(=O)C(C)C)n(C)c2ccccc2c1=O | 6.51 |
| Cc1ccc(C)c(N2CN(Cc3cccnc3)CNC2=S)c1 | 7.07 |
| COc1cc2[nH]c(=O)n(CCCCCC(=O)NC3CCCC3)c(=O)c2cc1OC | -45.6 |
| O=C(N/N=C/c1ccc(O)c([N+](=O)[O-])c1)c1ccncc1 | -7.5 |
| CCCCC(CC)C(=O)NCc1ccc(F)cc1 (stereo not drawn) | -1.51 |
| O=C(CSc1nnc(COc2ccccc2)n1Cc1ccco1)c1ccc(F)cc1 | -21.1 |
| Cc1ccc(-n2c(C)nn(CC3CC3)c2=O)cc1 | 9.03 |
| COc1ccc(N2CCCC2=N)c(OC)c1.Cl | 12.7 |
| CC(NCC(O)COC1CCC(C(C)(C)C)CC1)c1ccccc1.Cl (stereo not drawn) | -22.1 |
| CN(C)CCN1C(=O)C(O)=C(C(=O)c2cc3ccccc3o2)C1c1ccccn1 (stereo not drawn) | -8.01 |
| CS(=O)(=O)NNC(=O)c1cc2cc3ccccc3nc2s1 | 9.84 |
| N#Cc1c(/N=C/N2CCCC2)oc(-c2ccccc2)c1-c1ccccc1 | -1.88 |
| CCOc1ccc(C(=O)CCC(=O)O)cc1 | -4.71 |
| Cn1nnnc1SCC(=O)N1CCN(Cc2ccccc2)CC1 | 3.85 |
| CC(=O)Oc1c(C(=O)c2nnc(C)o2)c(=O)n(C)c2ccccc12 | -1.57 |
| CCOc1ccc(S(=O)(=O)N2CCC(C(=O)NCc3ccccn3)CC2)cc1Cl | -13.5 |
